In PMC12136788:
Some of the results follow.

B1: chr15:34751031:34752477:-|three_prime_utr|ENSG00000159248|control|control|control (ssRNA)
RNA: GGGAGUUCUACAGUCCGACGAUCAUGACUGCUCAGACGUGGCUGUAUCCACCCUCAUUUAUGUGACCCUCACCAUUAAGAUGUAGGAUAAGACUGGAUAAAAGAAGAUUUUGCACCAAUGGGAAAGGAGGAAAAGUGGACCCACAACAGAGGAUUGAGCAUCA
B2: chrX:48578139:48578249:+|3pUTR|ENSG00000102317|msi1_unk|total|mutant (ssRNA)
RNA: GGGAGUUCUACAGUCCGACGAUCGUAUCAAGAACAUGAUUAUCCAGCGGUAUUUUCUAAUUCAGAUCAUCAAACUGAUUAUACCGAAGAGUUGGCUUUAAAAUGUUUGCAAAUGUCUUUUUUUUUUUAAUACUGGAAGAAAAACAACAGAGGAUUGAGCAUCA
B3: chr2:32415436:32415554:+|CDS|ENSG00000115760|unk|FALSE|unique (ssRNA)
RNA: GGGAGUUCUACAGUCCGACGAUCUGGGACUUUGGUUCAGUGCUUGAGGCUGCCAAAGUUUGCAGAGGAGGAGAAUCUUUGUAUAGACUCAAUAACUCCUUGUGCUGACGGAAUUCAUUUGUUGGUAGGACUGCGGACAUGCCCCAACAGAGGAUUGAGCAUCA
B4: chr16:74623592:74623693:-|3pUTR|ENSG00000168411|msi1|total|mutant (ssRNA)
RNA: GGGAGUUCUACAGUCCGACGAUCCCAUUAUUGUAUGUUGGAAAUUCUUAUUUUCUUUAUUUUCUGUGUGACUUUCUGGACCUCCGAGAGUGUCCUCUCAUCAUCCCGGAUGUGAGUGGGCAUCAAGCAUUUUCUGGGGAAUAUCAACAGAGGAUUGAGCAUCA
B5: chr8:140515610:140515764:+|3pUTR|ENSG00000104472|unk|total|mutant (ssRNA)
RNA: GGGAGUUCUACAGUCCGACGAUCUUUUGGAAUCAGUUCUUAUAAACAGCUCGAUUCAGUUUCCGCUAAAUUUACCGUUCCGGCCGUAUGUUACAUUUGAAUUUUUGUCUUAAGAAAAGUUGACUGUUCAGAUAUUUUUCUACUCAACAGAGGAUUGAGCAUCA
B6: chr2:197486603:197486717:-|3pUTR|ENSG00000144381|unk|total|mutant (ssRNA)
RNA: GGGAGUUCUACAGUCCGACGAUCCCACCAGAUGAGAAGUUAAGCAGCCUUUCUGUGGAGAGUGAGAAUAAUUGUGUACAAAGCCGAGAAGUAUCCAAUUAUGUGACAACCUUUGUGUAAUAAAAAUUUGUUUAAAGUUAAUAACAACAGAGGAUUGAGCAUCA
B7: chr17:57106211:57106324:+|CDS|ENSG00000121057|unk|total|mutant (ssRNA)
RNA: GGGAGUUCUACAGUCCGACGAUCUCAUCCCAGGUGGUGGGGCCAGUGCAGGAGGAAGAGUAUGCCGCAGAGAAGUUGCCAAGCCGGUUCAUCGAGUCGGCUCACACAGAGCUGGCAAAGGACGAUGCGGCGCCAGCACCCCCACAACAGAGGAUUGAGCAUCA
B8: chr6:31137533:31137950:-|three_prime_utr|ENSG00000204538|control|control|control (ssRNA)
RNA: GGGAGUUCUACAGUCCGACGAUCGCAUCUCCAGGCACCCACGCCCUCUCCACCCUCUGAUUCCCCGUGAAUUCUUCCCAAUUUAGCCUGUCUCCUUAAACCUCUUCCUCAUUCCCUCGGUUUUAUUCUGAACCCGUAAGGUGGCAACAGAGGAUUGAGCAUCA
B9: chr5:136174412:136174513:+|CDS|ENSG00000113658|unk|total|mutant (ssRNA)
RNA: GGGAGUUCUACAGUCCGACGAUCUAUGUUGGUGGAGAGGUGUAUGCGGAAUGCCUCAGUGACAGCAGCAUAUUUGUACAGAGCCGGAACUGCAACUUUCAUCAUGGCUUUCAUCCCACCACUGUCUGUAAGAUUCCCAGCAGCCAACAGAGGAUUGAGCAUCA
B10: chr6:89631235:89631336:+|3pUTR|ENSG00000135299|msi1|FALSE|unique (ssRNA)
RNA: GGGAGUUCUACAGUCCGACGAUCUGAAGUUUGAAAGCUCAGAUUAAGCAAGCCAUGCCAAGAAACUGGACGAUGUGUAAGCCUAGACUCUAAAAUUCAAGAUGUGUGAAAUAAUAUAAGUCAAAAGCAAGAAAAACGUAAUCCCAACAGAGGAUUGAGCAUCA
B11: chr2:33399154:33399255:+|3pUTR|ENSG00000049323|msi1|total|mutant (ssRNA)
RNA: GGGAGUUCUACAGUCCGACGAUCAAGUACUUUAUAUUUUCAGUGUUUUGUCUGAUUUUAAUGUCCGUUCUCCGCCAAGCUGCCCGCAGGUGUUAAUUGGAUCCCUUUCCUUCACUGAAAUGGAAGAGUUUAUAAGCUUACGUUCAACAGAGGAUUGAGCAUCA
B12: chr9:134030564:134030586:-|3pUTR|ENSG00000169925|msi1_unk|FALSE|overlapping (ssRNA)
RNA: GGGAGUUCUACAGUCCGACGAUCCCUCUGACAGUCUUUUGGGAAAGAGUAACACCCACAUACAGAAUUUGUCACAUCCAGAGUAGCACUGUUCCUUAAUACUGGCAUAAUGCUUCCAGGAAGUUUUUCUUUUUUAUAUUUAAACAACAGAGGAUUGAGCAUCA
B13: chr15:65118290:65118391:-|3pUTR|ENSG00000090470|msi1|total|mutant (ssRNA)
RNA: GGGAGUUCUACAGUCCGACGAUCACUUCCUUGUGUGUUGAUGGGUAAGUACACUCAAACACUGAAUACAGGUGUGUGAUGGGCCGAUUUCACAGCCCUUCUACUAACCGUGAGUGUGAAGGCAAGCUUGAUGCAAAACCUCCUCAACAGAGGAUUGAGCAUCA
B14: chr1:226632358:226632459:-|3pUTR|ENSG00000143772|msi1|FALSE|unique (ssRNA)
RNA: GGGAGUUCUACAGUCCGACGAUCUCAAGCCAUUUUGCCACUCGCUUCCCUGCCAUCUGGCCCUUCCCUUUGUCUCAGUGGGAUAGAUGGAUUGUGAAAUGGAAUCUCCCAGAACCCCUGCCCUGGCAGCCUGGAAGACCGUGCCAACAGAGGAUUGAGCAUCA
B15: chr6:52752853:52752995:-|CDS|ENSG00000244067|control|control|control (ssRNA)
RNA: GGGAGUUCUACAGUCCGACGAUCAUUGAUAUGUAUAUAGAAGGUAUAGCAGAUUUGGGUGAAAUGAUCCUUCUUCUGCCCUUUAGUCAACCUGAGGAACAAGAUGCCAAGCUUGCCUUGAUCCAAGAGAAAACAAAAAAUCGCCAACAGAGGAUUGAGCAUCA
B16: chr8:63210610:63210711:+|3pUTR|ENSG00000185728|msi1|FALSE|unique (ssRNA)
RNA: GGGAGUUCUACAGUCCGACGAUCCAUGAAGUAAAAAUUUAUUACUCUAGGUAUUCACUAGCUAAAUAAACAUAGUUCUUGUUUAGCAAGCAUAUGUUGUUCCUCAGCUCUUUUCUCCAGCUUUUGCAGUGUCCUGGCAUCCUUCAACAGAGGAUUGAGCAUCA
B17: chr14:100537146:100537968:-|three_prime_utr|ENSG00000183092|control|control|control (ssRNA)
RNA: GGGAGUUCUACAGUCCGACGAUCGCCCCGGCCAACAACGAGGAGUCUGUUCCUCCCCGCACCUCCUCUCCUCCCCAGCCCUGUAGGCCUGAGGGGAGGGUCCCCCACACCACGGUGUCCACCCGGCCCCGGCCCGUGGAACUCCAACAGAGGAUUGAGCAUCA
B18: chr16:70532473:70532607:+|CDS|ENSG00000189091|unk|total|mutant (ssRNA)
RNA: GGGAGUUCUACAGUCCGACGAUCCAAUGAUCCAACAGGGGAAGCAGCAGCUAAUACCCAGCAGACACUUACUUUCUAUGAGCCCGACCUUGGUUUAAAUCAUGUGGUCCGAAAAUACAGUGAACCUUUGGAGGAACACGGCAACAACAGAGGAUUGAGCAUCA
B19: chr2:40113585:40113686:-|3pUTR|ENSG00000183023|msi1|FALSE|unique (ssRNA)
RNA: GGGAGUUCUACAGUCCGACGAUCUCAUUUUAUUUUUUUACUUAAAAGGCUAUUUUGAGCCCUGUUUCUUUCACUGUCCAGUCUAGUCCUCUUUGAUUAUAUCAGUAGUUGCUGAGUAAGAAAGAAGCCAGGGUGACCAACGGGCAACAGAGGAUUGAGCAUCA
B20: chr4:41013971:41014072:-|CDS|ENSG00000163697|msi1|FALSE|unique (ssRNA)
RNA: GGGAGUUCUACAGUCCGACGAUCGCAGGACCCCAACAAAAACCUGAGCCCCACUGCAGUCAUCAACAUAACUUCUGAGAAGUUAGAGGGUAAAGAGCCCCACCCACAGGAUUCCUCGAGCUGUGAGAUUUUACCCUCCCAGCCCAACAGAGGAUUGAGCAUCA
B21: chr5:138184526:138184629:+|CDS|ENSG00000112984|unk|total|mutant (ssRNA)
RNA: GGGAGUUCUACAGUCCGACGAUCGUGCAUGCCCCACCUAUGCAACUGGGAUUCCCAUCCCUGCACUCGUUCAUCAAGGAACACCGUCUUCAGGUAUCCCCCAGCUCCGAGAAAGGGGCUAAGGCAGACACAGGCCUUGAUGAUCAACAGAGGAUUGAGCAUCA
B22: chr9:34253332:34253433:-|3pUTR|ENSG00000186638|unk|FALSE|unique (ssRNA)
RNA: GGGAGUUCUACAGUCCGACGAUCCUCUGAAACAGAAUUCACACACAAACCUUCAGCCAAGUUCUGCCUGCUGUGUAUCUUUUUAGCAGGAAGCAGCUCAGGACAGGGAAGACAAAGUAGCCUCCAGGUGCCAAUUACUUUAAACAACAGAGGAUUGAGCAUCA

The binders below were run against MSI1 full-length (mouse, UniProt Q61474 1-362) (assay: nsRBNS (natural sequence RNA bind-n-seq); RBNS binding buffer (assumed for nsRBNS): 25 mM Tris pH 7.5, 150 mM KCl, 3 mM MgCl2, 0.01% Triton X-100, 500 ug/ml BSA, 20 U/ml SUPERase-In, 4 C; UNK is unkempt and MSI1 is Musashi-1; names of the RNAs are library labels; protein concentration not given here; high values mean tight binding).
UniProt Q61474, sequence (Q61474 whole entry): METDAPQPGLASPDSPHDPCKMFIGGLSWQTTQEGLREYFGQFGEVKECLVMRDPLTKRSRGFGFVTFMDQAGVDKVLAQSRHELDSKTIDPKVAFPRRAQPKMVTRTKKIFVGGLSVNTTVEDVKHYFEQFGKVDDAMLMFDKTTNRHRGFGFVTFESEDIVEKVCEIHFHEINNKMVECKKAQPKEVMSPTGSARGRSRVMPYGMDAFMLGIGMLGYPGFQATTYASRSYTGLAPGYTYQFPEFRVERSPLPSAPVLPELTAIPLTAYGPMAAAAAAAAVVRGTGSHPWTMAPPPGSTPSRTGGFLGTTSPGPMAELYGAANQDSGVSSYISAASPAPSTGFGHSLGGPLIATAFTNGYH

First: B1
Second: B2
The binding signal of the first is higher: 0.622 enrichment R for the first, 0.363 enrichment R for the second.

Going from B3 to B4, the binding signal falls from 0.446 enrichment R to 0.405 enrichment R.

Compared with B5, B6 is higher in binding signal: 0.336 enrichment R for the first, 2.44 enrichment R for the second.

First: B7
Second: B8
The binding signal of the first is lower: 0.45 enrichment R for the first, 0.944 enrichment R for the second.

Going from B9 to B10, the binding signal falls from 0.605 enrichment R to 0.258 enrichment R.

Compared with B11, B12 is higher in binding signal: 0.383 enrichment R for the first, 0.734 enrichment R for the second.

Going from B13 to B14, the binding signal rises from 0.234 enrichment R to 1.34 enrichment R.

Going from B15 to B16, the binding signal rises from 0.83 enrichment R to 3.2 enrichment R.

First: B17
Second: B18
The binding signal of the first is higher: 0.593 enrichment R for the first, 0.36 enrichment R for the second.

Going from B19 to B20, the binding signal falls from 1.73 enrichment R to 0.526 enrichment R.

First: B21
Second: B22
The binding signal of the first is lower: 0.32 enrichment R for the first, 0.755 enrichment R for the second.
